# Data reported in PubChem BioAssay (Tox21).
# Values joined by “and” are separate entries in the source; they are usually repeats but may differ in a detail not shown here. Equal entries are not always repeated. Inconclusive results, whose numbers are uncertain, are shown with a selection of clear calls. Potencies beside an inconclusive call are fits to weak or partial responses and may not hold up. Where a structure was tested more than once in an assay, its records may differ in their call. Active and inactive are the calls of the source. Unless noted, calls come from the whole dose curve; as a rule, active = well fitted curve in the direction sought with a large enough effect in the repeat runs; inconclusive = weak or mixed curves; inactive = no such curve, though single readings can be large; an effect the other way counts as inactive or inconclusive.
# Tests used:
# [1] = qHTS assay to identify small molecule antagonists of the estrogen related receptor signaling pathway with the pleiotropic PPARgamma coactivator (PGC) from Tox21 10K library - cell viability counter screen (AID 1224840; active = well fitted cell-killing curve with a large enough effect in the repeat runs, not every such curve was filed as active; inconclusive = weak or mixed curves, or effect the other way; inactive = no such curve, though single readings can be large or run the other way; note: nearly all actives have a fitted effect of over 40% in size)
# Summary of the method: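 PGC/ERR cells, 2,000/well; 6 h pre-incubation 37 C/5% CO2; cpd in DMSO via pin tool; 17.5 h 37 C; CellTiter-Fluor, 30 min; fluorescence.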
# [2] = target: Thyrotropin receptor (Homo sapiens) (UniProt P16473); assay: qHTS assay to identify small molecule agonists of the thyroid stimulating hormone receptor (TSHR) signaling pathway (AID 1224843; calls by dose curve; note: nearly all actives have a fitted effect of over 45% in size; for activation: % is set by controls: 0 for no effect and ±100 for the full control effect); conditions: TSHR-HEK293 cells, cAMP HTRF, agonist mode, 30 min; activation: at 92.4 µM (top of the series) unless noted
# Summary of the method: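 TSHR-expressing HEK293 cells (800 per well) were exposed to compounds for 30 min at room temperature. cAMP was then detected by HTRF competition with cAMP-d2 and anti-cAMP cryptate, read after 1 h at room temperature. Fifteen concentrations, triplicate.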
# [3] = qHTS assay to identify small molecule agonists of the hypoxia (HIF-1) signaling pathway - cell viability counter screen (AID 1224844; calls by dose curve; note: nearly all actives have a fitted effect of over 50% in size)
# Summary of the method: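 ME-180 HRE-bla cells, 2,000/well, 0.5% dialyzed FBS; 5 hr settle, 17 hr compound at 37C/5% CO2; CCF4-AM reporter read first, then CellTiter-Glo luminescence after 30 min RT.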
# [4] = qHTS assay to identify small molecule agonists of H2AX (AID 1224845; active = well fitted activation curve with a large enough effect in the signal ratio in the repeat runs, not every such curve was filed as active; inconclusive = weak or mixed curves; the % refers to the signal ratio); conditions: CHO-K1 phospho-H2AX Ser139 HTRF, 3 h; activation (H2AX phosphorylation): at 154 µM (top of the series)
# Summary of the method: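 Wild-type CHO-K1 cells plated overnight, then exposed 3 hr at 37C to compounds at 15 concentrations (0.76% DMSO). Lysed, then HTRF anti-pH2AX(S139)-cryptate/anti-H2AX-d2 detection after 24 hr at room temperature; emissions 665 and 620 nm.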
# [5] = qHTS assay to identify small molecule agonists of the hypoxia (HIF-1) signaling pathway (AID 1224846; active = well fitted activation curve with a large enough effect in the signal ratio in the repeat runs, not every such curve was filed as active; inconclusive = weak or mixed curves; the % refers to the signal ratio); conditions: HRE-bla ME-180 cells, beta-lactamase ratio, 17 h; activation: at 76.8 µM (top of the series) unless noted
# Summary of the method: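 Cell line: CellSensor HRE-bla ME-180; 2,000 cells/well; 0.5% dialyzed FBS; 5 h preincubation; DMSO compound pin transfer; 17 h, 37C, 5% CO2; CCF4-AM added; bla FRET signal scored for activation.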
# [6] = qHTS RealTime-Glo MT Cell Viability Assay in HepG2 cells - 24 hour (AID 1224867); note: nearly all actives have a fitted effect of over 50% in size
# Summary of the method: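 Cell number in HepG2 cultures estimated from NanoLuc luminescence generated by metabolic reduction of a prosubstrate by living cells. The homogeneous, nonlytic format allowed repeated reads at 0, 8, 16, 24, 32 and 40 h of compound exposure.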
# [7] = qHTS RealTime-Glo MT Cell Viability Assay in HepG2 cells - 40 hour (AID 1224870); note: nearly all actives have a fitted effect of over 50% in size
# Summary of the method: (§1)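 HepG2 cells mixed with RealTime-Glo MT reagents (NanoLuc plus cell-permeant prosubstrate) were seeded at 600 cells/well, incubated 5 h at 37 C/5% CO2, then pinned with compounds in DMSO; nonlytic luminescence tracked viability during 40 h treatment.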
# [8] = qHTS RealTime-Glo MT Cell Viability Assay in HEK293 cells - 16 hour (AID 1224872); note: nearly all actives have a fitted effect of over 50% in size
# Summary of the method: (§2)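 Homogeneous bioluminescent viability format in HEK293 cells (600 cells/well). Following 5 h at 37 C/5% CO2, 23 nL compound was pintooled; the signal was measured repeatedly during 40 h incubation.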
# [9] = qHTS RealTime-Glo MT Cell Viability Assay in HepG2 cells - 8 hour (AID 1224873); note: nearly all actives have a fitted effect of over 55% in size
# Summary of the method: as §1
# [10] = qHTS assay to identify small molecule agonists of H2AX - cell viability counter screen (AID 1224847; calls by dose curve; note: nearly all actives have a fitted effect of over 30% in size)
# Summary of the method: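 Wild-type CHO-K1 cells (10% FBS medium) were plated overnight at 37C, exposed to compounds at 15 concentrations for 3 hr at 37C (0.76% DMSO final), and viability was read as CellTiter-Glo luminescence after 30 min at room temperature.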
# [11] = qHTS assay to identify small molecule antagonists of the estrogen related receptor (ERR) signaling pathway from Tox21 library (AID 1224848); note: nearly all actives have a fitted effect of over 50% in size
# Summary of the method: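 Cells: ERR line, 2,000/well; 6 h preincubation 37 C/5% CO2. Cpd in DMSO via pin tool; 18 h, 37 C. ONE-Glo, 30 min RT, luminescence.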
# [12] = qHTS assay to identify small molecule antagonists of the estrogen related receptor signaling pathway with the pleiotropic PPARgamma coactivator (PGC) from Tox21 10K library (AID 1224841; call rule not given here)
# Summary of the method: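 PGC/ERR cell line, 2,000 cells/well; 6 h pre-incubation 37 C/5% CO2; compounds (DMSO) pinned in; 18 h, 37 C; One-Glo, 30 min RT; luminescence.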
# [13] = A CellTox Green Cytotoxicity Assay to monitor cytotoxicity in HEK293 cells - 40 hour (AID 1224871); note: nearly all actives have a fitted effect of over 45% in size
# Summary of the method: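 Nonlytic real-time cytotoxicity: HEK293 + CellTox Green reagent plated, 5 h preincubation, pintool compound addition (23 nL in DMSO), 37 C for 40 h, fluorescence measured at successive time points.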
# [14] = qHTS RealTime-Glo MT Cell Viability Assay in HEK293 cells - 40 hour (AID 1224874); conditions: RealTime-Glo luminescence; max response: stronger effect = lower value; note: nearly all actives have a fitted effect of over 50% in size
# Summary of the method: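 Cells were seeded together with NanoLuc luciferase and a prosubstrate that viable cells reduce to a luciferase substrate. After a 5 h incubation at 37 C/5% CO2, compounds were added and luminescence was measured repeatedly during 40 h of treatment.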
# [15] = qHTS RealTime-Glo MT Cell Viability Assay in HEK293 cells - 32 hour (AID 1224868); note: nearly all actives have a fitted effect of over 50% in size
# Summary of the method: as §2
# [16] = qHTS assay to identify small molecule agonists of the estrogen related receptor signaling pathway with the pleiotropic PPARgamma coactivator (PGC) from Tox21 10K library (AID 1224842); note: nearly all actives have a fitted effect of over 15% in size
# Summary of the method: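 PGC/ERR reporter cells (NTP line) were seeded 2,000 per well, rested 6 h at 37 C/5% CO2, then pin-dosed with compounds in DMSO for 18 h at 37 C; luciferase read by One-Glo luminescence after 30 min at room temperature.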
# [17] = target: Nuclear receptor subfamily 1 group I member 3 (Homo sapiens) (UniProt Q14994); assay: qHTS assay to identify small molecule agonists of the constitutive androstane receptor (CAR) signaling pathway (AID 1224839); note: nearly all actives have a fitted effect of over 15% in size
# Summary of the method: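 HepG2 cells stably expressing hCAR and a CYP2B6-2.2kb luciferase reporter were treated with compounds at 15 concentrations plus 0.75 uM PK11195 (final) for 24 h at 37 C; luminescence was read after ONE-Glo addition.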
# Potency is the fitted concentration of half-maximal effect; tags give direction and shape of the fitted curve or compound fluorescence and quenching.
# Chain of UniProt Q14994 (Q14994 whole entry, looked up): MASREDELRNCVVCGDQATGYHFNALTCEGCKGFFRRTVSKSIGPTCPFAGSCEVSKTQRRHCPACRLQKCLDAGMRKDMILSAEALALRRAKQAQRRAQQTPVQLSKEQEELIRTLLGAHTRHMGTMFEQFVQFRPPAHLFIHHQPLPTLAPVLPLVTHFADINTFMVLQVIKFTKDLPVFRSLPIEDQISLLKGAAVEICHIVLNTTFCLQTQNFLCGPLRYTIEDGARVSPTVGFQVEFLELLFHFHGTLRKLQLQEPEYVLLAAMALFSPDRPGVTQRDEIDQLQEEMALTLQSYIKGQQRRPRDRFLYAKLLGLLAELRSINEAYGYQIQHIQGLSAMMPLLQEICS
# Chain of UniProt P16473 (P16473 whole entry, looked up): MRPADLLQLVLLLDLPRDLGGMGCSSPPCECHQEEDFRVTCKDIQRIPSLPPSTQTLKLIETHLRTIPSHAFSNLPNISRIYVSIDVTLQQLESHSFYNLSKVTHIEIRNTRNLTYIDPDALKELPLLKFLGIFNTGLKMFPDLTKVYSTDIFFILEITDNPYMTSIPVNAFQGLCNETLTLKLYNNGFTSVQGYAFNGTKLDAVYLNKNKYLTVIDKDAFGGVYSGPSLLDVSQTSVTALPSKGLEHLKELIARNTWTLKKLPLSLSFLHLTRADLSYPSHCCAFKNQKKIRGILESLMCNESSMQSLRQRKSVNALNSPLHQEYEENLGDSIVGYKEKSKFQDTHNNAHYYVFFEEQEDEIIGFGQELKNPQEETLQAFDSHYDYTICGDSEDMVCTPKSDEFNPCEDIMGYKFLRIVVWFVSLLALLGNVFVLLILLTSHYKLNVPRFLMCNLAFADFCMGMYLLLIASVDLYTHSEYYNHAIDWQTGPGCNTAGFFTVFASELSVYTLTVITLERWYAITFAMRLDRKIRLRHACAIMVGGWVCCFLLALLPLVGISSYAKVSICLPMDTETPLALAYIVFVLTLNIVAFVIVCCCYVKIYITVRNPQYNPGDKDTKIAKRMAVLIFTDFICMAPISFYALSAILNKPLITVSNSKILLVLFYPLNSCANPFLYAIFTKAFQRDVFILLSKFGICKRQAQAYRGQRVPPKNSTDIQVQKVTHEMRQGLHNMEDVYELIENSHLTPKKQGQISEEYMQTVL
smiles,measurement,setting,value
CC(C)CC(C)Nc1ccc(Nc2ccccc2)cc1 (stereo not drawn),Potency,[1],active: 67.4 µM
same,activation,[2],inconclusive: 14.3%
same,Potency,[3],"inconclusive: 54 µM [cytotoxic, single point]"
same,Potency,[4],inconclusive: 44.2 µM
same,Potency,[5],"inconclusive: 42.9 µM [falling, partial curve]"
same,Potency,[6],"inconclusive: 54 µM [falling, partial curve]"
same,Potency,[7],"inconclusive: 54 µM [falling, single point]"
same,Potency,[8],active: 19.2 µM
same,Potency,[9],active: 42.9 µM
O=C1C2(Cl)C3(Cl)C4(Cl)C(Cl)(Cl)C5(Cl)C3(Cl)C1(Cl)C5(Cl)C24Cl (stereo not drawn),Potency,[1],active: 47.8 µM and active: 58.5 µM
same,Potency,[2],"inconclusive: 8.49 µM [activator, full curve]"
same,activation,[2],inconclusive: 26.1%
same,Potency,[3],"active: 21.5 µM and inconclusive: 59.1 µM [cytotoxic, single point]"
same,Potency,[10],active: 49.6 µM and active: 96.5 µM
same,Potency,[11],active: 26.9 µM and active: 58.5 µM
same,Potency,[6],active: 42.9 µM and active: 46.9 µM
CC(C)(c1ccc(OCC2CO2)cc1)c1ccc(OCC2CO2)cc1 (stereo not drawn),Potency,[1],"inconclusive: 55.2 µM [cytotoxic, single point]"
same,Potency,[12],active: 69.5 µM and inactive
same,Potency,[2],"inconclusive: 69.5 µM [activator, single point]"
same,Potency,[4],"inconclusive: 128 µM [activator, partial curve, poor fit]"
same,Potency,[11],"inconclusive: 27.3 µM [inhibitor, partial curve]"
same,Potency,[13],"inconclusive: 44.2 µM [activator, single point]"
same,Potency,[14],"inconclusive: 55.7 µM [cytotoxic, single point]"
S=C(SSC(=S)N1CCCCC1)N1CCCCC1,Potency,[1],"inconclusive: 0.298 µM [cytotoxic, full curve]"
same,Potency,[2],inactive
same,Potency,[3],active: 0.338 µM
same,Potency,[4],"inconclusive: 6.19 µM [falling, full curve]"
same,Potency,[5],"inconclusive: 0.477 µM [falling, full curve]"
same,Potency,[10],"inconclusive: 19.6 µM [rising, full curve, poor fit]"
same,Potency,[6],"inconclusive: 26.8 µM [falling, partial curve, poor fit]"
same,Potency,[7],active: 0.213 µM
same,Potency,[13],active: 0.151 µM
same,Potency,[9],active: 26.8 µM
same,Potency,[14],"inconclusive: 19 µM [cytotoxic, partial curve, poor fit]"
O=CC(Br)(Br)Br,Potency,[1],active: 15.3 µM
same,Potency,[2],active: 30.5 µM
same,Potency,[3],inconclusive: 61.4 µM [cytotoxic]
same,Potency,[4],active: 31.8 µM
same,Potency,[5],"inconclusive: 43.5 µM [falling, partial curve]"
same,Potency,[10],"inconclusive: 126 µM [cytotoxic, single point]"
same,Potency,[6],active: 48.8 µM
same,Potency,[13],"inconclusive: 2.18 µM [activator, full curve, poor fit]"
same,Potency,[8],"inconclusive: 2.74 µM [cytotoxic, full curve]"
same,Potency,[9],"inconclusive: 24.5 µM [falling, partial curve]"
O=c1ssc(Cl)c1Cl,Potency,[1],"inconclusive: 68.6 µM [cytotoxic, single point]"
same,Potency,[12],inconclusive: 68.6 µM
same,Potency,[3],active: 17.4 µM
same,Potency,[5],"inconclusive: 17.4 µM [falling, full curve]"
same,Potency,[11],"inconclusive: 68.6 µM [inhibitor, single point]"
same,Potency,[6],active: 21.9 µM
same,Potency,[15],active: 15.5 µM
same,Potency,[7],active: 21.9 µM
same,Potency,[9],active: 21.9 µM
NCC(O)c1ccc(O)cc1 (stereo not drawn),Potency,[1],inactive
CCC[CH2][Sn]([CH2]CCC)([CH2]CCC)[O][Sn]([CH2]CCC)([CH2]CCC)[CH2]CCC,Potency,[1],active: 0.533 µM
same,Potency,[16],"inconclusive: 2.12 µM [activator, partial curve, poor fit]"
same,Potency,[2],"inconclusive: 0.377 µM [activator, full curve]"
same,Potency,[4],active: 0.278 µM
same,Potency,[5],inconclusive: 0.537 µM [full curve]
same,Potency,[11],active: 0.377 µM
same,Potency,[8],active: 0.214 µM
same,Potency,[9],active: 0.956 µM
same,Potency,[14],active: 0.151 µM
Oc1cc(Cl)cc(Cl)c1,Potency,[17],"inconclusive: 27.6 µM [activator, partial curve, poor fit]"
same,Potency,[15],"inconclusive: 49.5 µM [cytotoxic, single point]"
same,Potency,[13],"inconclusive: 49.5 µM [activator, single point]"
same,Potency,[8],"inconclusive: 55.5 µM [cytotoxic, partial curve, poor fit]"
same,Potency,[14],"inconclusive: 49.5 µM [cytotoxic, partial curve]"
CCCN(CCC)c1c([N+](=O)[O-])cc(C(F)(F)F)cc1[N+](=O)[O-],Potency,[17],"inconclusive: 34.3 µM [activator, partial curve]"
same,Potency,[8],"inconclusive: 48.9 µM [cytotoxic, partial curve]"
CCOP(=O)(OCC)Oc1ccc([N+](=O)[O-])cc1,Potency,[1],"inconclusive: 24.3 µM [cytotoxic, full curve, poor fit]"
same,Potency,[12],active: 19.6 µM and active: 5.45 µM
same,Potency,[5],"inconclusive: 55.6 µM [falling, partial curve] and inconclusive: 24.5 µM [falling, partial curve]"
same,Potency,[15],"inconclusive: 11.1 µM [cytotoxic, partial curve, poor fit]"
same,Potency,[14],"inconclusive: 7.86 µM [cytotoxic, partial curve, poor fit] and inconclusive: 12.3 µM [cytotoxic, partial curve, poor fit]"
Oc1ccc2ccc3cccc4ccc1c2c34,Potency,[17],active: 61.1 µM
same,Potency,[4],"inconclusive: 89.8 µM [falling, partial curve]"
same,Potency,[10],inconclusive: 127 µM [cytotoxic]
same,Potency,[6],"inconclusive: 54.9 µM [falling, single point]"
same,Potency,[7],"inconclusive: 61.6 µM [falling, single point]"
same,Potency,[13],"inconclusive: 61.6 µM [activator, single point]"
same,Potency,[8],active: 15.5 µM
same,Potency,[9],active: 43.6 µM
CCOP(=S)(OCC)OC(Cl)C(Cl)(Cl)Cl (stereo not drawn),Potency,[17],"inconclusive: 54.5 µM [activator, partial curve]"
same,Potency,[4],inconclusive: 127 µM [activator]
same,Potency,[10],inactive
same,Potency,[7],inactive
same,Potency,[13],"inconclusive: 61.6 µM [activator, single point]"
